In all, about 33,000 sequences were measured (“E-score (dimensionless, -0.5 to 0.5)”: median about -0.058, highest 2% from about 0.35 on). This is one part of the list.
These sequences were tested on MvaT (assay: PBM 8-mer E-score (mean of HK and ME arrays) (E-score (dimensionless, -0.5 to 0.5)); higher = stronger relative binding preference; most listed sequences are background and not binding sites).
Outline: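 Full-length P. aeruginosa MvaT carrying an N-terminal glutathione S-transferase tag was tested by protein binding microarray following a previously described protocol. Two universal double-stranded 60-mer arrays, ME and HK, were used, each with a constant 25-mer primer region and a variable 35-mer region covering all 8-mers. The rank-based E-score is the mean of the two arrays, parsed with a custom script. Its range runs from -0.5 to 0.5 for each 8-mer.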

Sequence | PBM 8-mer E-score
ATGCGGGC | -0.198
CGGTGTTA | 0.107
ACATCAGT | 0.0159
CAAGAAAC | 0.0789
ATGCACGC | -0.239
CGTACAAC | 0.0206
TCCTACAA | -0.112
AGTCGCAG | -0.147
TGCCCACA | -0.106
GCCCCGTA | -0.173
GGCCACTA | -0.107
CAACCCAA | 0.0539
ACCAGGCT | -0.122
GGTTGGAA | -0.00665
ACGTTGTC | -0.19
CGAGACAG | -0.231
ATGAGTAG | 0.111
AAGCACGC | -0.0662
GAAAGTTA | 0.346
CATGAGCG | -0.229
GCCCTAGA | -0.107
GACCTATC | -0.216
AATAAACT | 0.293
AAAACACA | 0.118
AAAAAAAG | 0.0824

Sequence | PBM 8-mer E-score
TGGGCTAA | 0.0167
AACGGTCG | -0.137
CCTCGGCG | -0.268
AGGAGCCC | -0.352
AAGTCGAC | -0.0082
GATGAAAA | 0.0924
CTTCAACA | 0.0315
AAATGCTC | -0.0104
CTTCTTAA | 0.0925
AGCAATTC | -0.105
AGGGCGCG | -0.164
CCTCAGTC | -0.185
CCACCATC | -0.107
AAACTCAG | 0.085
CGCCCGAA | -0.0347
ATTCCATA | 0.152
CGATTTAC | -0.101
AATGTTTA | 0.304
ATTACCCA | 0.283
TCTTATCA | 0.177
ACTAGGTC | -0.194
GATCGCCC | -0.152
ACAAGCTA | -0.0503
CGACGGCC | -0.158
ACGAGCCG | -0.244

Sequence | PBM 8-mer E-score
AAAACGCT | 0.0807
AGGAATTC | 0.00711
CAACTATA | 0.296
ACCGTCCA | -0.133
ACGGGGTG | -0.259
TGAATTAA | 0.376
CCTTCACC | -0.245
AGATTGGG | -0.0767
ACGTCAAT | 0.201
AAAATTTC | 0.262
ATGCAGCA | -0.0483
CAACGGTG | -0.199
CACCGCGA | -0.074
AAAGTTGG | 0.229
AGCGTAAC | -0.0274
GACGAGTC | -0.251
CCGTTACG | -0.144
CTTTCCCA | -0.144
ACGCTCTA | 0.052
CGCTGCGA | -0.223
TAATGATA | 0.192
GGTGCCAC | -0.245
AAAATGAT | 0.175
AGCGCAAG | -0.0786
CTCCGTCA | -0.216

Sequence | PBM 8-mer E-score
AGTGGGTC | -0.121
ACGTAACG | -0.0176
CTAAGTAA | 0.3
AATCTGCT | -0.0198
AGGTTGCC | -0.185
AGGCACCT | -0.217
CCTGGCCC | -0.188
CTCAATCA | 0.00229
AGCGTGCG | -0.204
CCATATAA | 0.343
GAAGAGAC | -0.058
AACAGCTA | 0.0766
CACAACCC | -0.0734
AATACGAA | 0.136
CATTTAGC | -0.0206
GTAGAAGA | 0.0424
CCGCCCTA | -0.167
CACCGGGA | -0.114
AGTATACT | 0.422
ATTAGAAA | 0.181
CACATAAG | 0.122
GCAAAGGC | -0.239
GGAAGACC | -0.247
AACTGATT | 0.171
ACGCCGAT | -0.144

Sequence | PBM 8-mer E-score
AGCCAACT | 0.00249
GAGCGTAA | -0.0448
GCCGCACA | -0.138
ATATAACC | 0.37
AAACCTAG | 0.0925
GCAGCCCA | -0.265
CCCTTTGA | -0.188
ATGCAAGG | 0.0234
AGTTTGGA | 0.151
AAAATATA | 0.43
GCCAGGAC | -0.272
GGAAGAAA | 0.0396
AAGAAGGG | -0.144
TAGGGACA | -0.263
AAAGCAAA | 0.139
CACCCATC | -0.0704
GACCGTGA | -0.135
CTGTGGCC | -0.201
AGCTGTTC | -0.131
AAACAGGT | 0.035
CAATTAAG | 0.24
AGCTACCA | -0.167
TCAACTCA | -0.0743
GAGCCAAA | -0.291
AATCAGGT | 0.0801

Sequence | PBM 8-mer E-score
AAGTTCAA | 0.398
AATCTCCC | -0.126
CTATAAAG | 0.0669
GATTTGCC | 0.0159
ATAGCTAG | -0.054
CGAGAGGA | -0.212
GTCAAGGA | -0.0943
GCTAACCC | -0.198
CCCAGCAA | -0.107
AGTTGACC | 0.0343
CCAGAGAC | -0.0283
GATTTCTA | 0.00839
CATTGCAG | -0.114
CGACGGTA | -0.063
AATGCGCT | 0.0594
ACGAATGG | -0.099
CAACGCTA | -0.173
CTTTGGGC | -0.209
CGCAACCA | -0.0649
ATTCGGTA | 0.108
GACTCATC | 0.00578
CAGGTGCC | -0.397
ACGCACGG | -0.17
AAAGAAGT | 0.286
ACTGAGCA | -0.286

Sequence | PBM 8-mer E-score
CAACTTGA | 0.122
ATGGGGGA | -0.204
GTCGATAA | 0.14
AGATGGAC | -0.18
ACACAGCT | -0.0991
TAGGTGCA | -0.0271
CCAACAAA | 0.14
GAAGATTA | 0.282
AACGAATT | 0.285
TCATCACA | -0.0864
AAACCTAA | 0.0741
ACAGGAAG | -0.0109
GAAGAACA | 0.0478
AAGAACCA | -0.00894
AATACGCT | 0.0617
AATTCAGT | 0.203
CAGGGAAC | -0.181
TGCGACCA | -0.185
GGCTCCGA | -0.207
AAATGTGC | 0.076
TCTCGGAA | -0.00286
AATTAAGG | 0.37
